The record followed here is the supplement of paper PMC8285479.

The test has as its system NCI-H1944. The test can be described thus: normalised cell viability (NPI; 0 = phenylarsine oxide control, 1 = DMSO control) (fraction of DMSO control); NCI-H1944 is a non-small cell lung cancer line; higher = more viable cells (less compound toxicity). The following applies: 6 days.
Setting [1] is: glucocorticoid arm: hydrocortisone 2.75 uM co-treatment, compound 1 µM.
The mark [2] stands for this setting: glucocorticoid arm: hydrocortisone 2.75 uM co-treatment, compound 5 µM.
[3] abbreviates: glucocorticoid arm: hydrocortisone 2.75 uM pre-treated 2 days and continued, compound 1 µM.
[4] abbreviates: glucocorticoid arm: hydrocortisone 2.75 uM pre-treated 2 days and continued, compound 5 µM.
The mark [5] stands for this setting: glucocorticoid arm: vehicle, compound 1 µM.
Setting [6] is: glucocorticoid arm: vehicle, compound 5 µM.

Counter-ions that a name gives are not always drawn. ± gives the standard deviation of the averaged measurements. Whole data set: some 1,900 compounds, median “normalised cell viability (NPI; 0 = phenylarsine oxide control, 1 = DMSO control)” near 1, cut for the lowest 2% near 0.039. This is one part of the list.
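Further: CTB read-out in 384-well plates, mean of triplicate wells, normalised per plate against 1 µM phenylarsine oxide and 0.1% DMSO, compounds added 24 h after seeding.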

`CCc1nc(-c2cccc(C)c2)c(-c2ccnc(NC(=O)c3ccccc3)c2)s1`: the normalised cell viability runs as follows: under setting [1], 0.9317 ± 0.0071; under setting [2], 0.863 ± 0.0076; under setting [3], 0.918 ± 0.021; under setting [4], 0.873 ± 0.019; under setting [5], 0.9807 ± 0.0047; under setting [6], 0.989 ± 0.011.
As for `O=C(CCCCCCC(=O)NO)NO` [Suberoyl bis-hydroxamic acid], the normalised cell viability runs as follows: under setting [1], 0.958 ± 0.024; under setting [2], 0.833 ± 0.053; under setting [3], 0.968 ± 0.021; under setting [4], 0.868 ± 0.04; under setting [5], 1.005 ± 0.0057; under setting [6], 0.9962 ± 0.0093.
Turning to `CN(C)CCC=C1c2ccccc2CCc2ccccc21` [Amitriptyline hydrochloride], the normalised cell viability runs as follows: under setting [1], 0.974 ± 0.0072; under setting [2], 0.922 ± 0.024; under setting [3], 0.982 ± 0.0096; under setting [4], 0.951 ± 0.0028; under setting [5], 0.992 ± 0.0072; under setting [6], 0.997 ± 0.001.
On to `CN(C)CCC=C1c2ccccc2CCc2ccccc21` [Amitriptyline HCl], for which the normalised cell viability reads like this: under setting [1], 0.985 ± 0.03; under setting [2], 0.958 ± 0.021; under setting [3], 0.9873 ± 0.004; under setting [4], 0.979 ± 0.011; under setting [5], 0.9813 ± 0.006; under setting [6], 0.9823 ± 0.0068.
Turning to `Cc1[nH]c(=O)c(C#N)cc1-c1ccncc1` [Milrinone], the normalised cell viability under setting [1] was determined as 0.996 ± 0.013; the normalised cell viability under setting [2] was determined as 1.001 ± 0.0083; the normalised cell viability under setting [3] was found to be 0.998 ± 0.0035; the normalised cell viability under setting [4] is 1.05 ± 0.081; the normalised cell viability under setting [5] turned out to be 0.9903 ± 0.009; the normalised cell viability under setting [6] worked out at 0.993 ± 0.015.
In the case of `Cn1c(=O)c2[nH]cnc2n(C)c1=O` [Aminophylline ethylenediamine], the normalised cell viability stood at 0.991 ± 0.0095 under setting [1]; 0.979 ± 0.013 under setting [2]; 0.9913 ± 0.0099 under setting [3]; 1 ± 0.026 under setting [4]; 0.981 ± 0.015 under setting [5]; 0.9733 ± 0.0023 under setting [6].
For the compound `CNC(=O)c1ccc(-c2cnc3ncc(Cc4ccc5ncccc5c4)n3n2)cc1F`, the normalised cell viability was 0.966 ± 0.02 under setting [1]; 0.859 ± 0.01 under setting [2]; 0.947 ± 0.019 under setting [3]; 0.867 ± 0.041 under setting [4]; 0.9877 ± 0.0068 under setting [5]; 0.948 ± 0.0095 under setting [6].
As for `Cn1c(=O)c2[nH]c(C3CCCC3)nc2n(C)c1=O` [8-Cyclopentyl-1,3-dimethylxanthine], the normalised cell viability under setting [1] came out at 1.01 ± 0.011; the normalised cell viability under setting [2] stood at 1.023 ± 0.0058; the normalised cell viability under setting [3] came to 0.9963 ± 0.0055; the normalised cell viability under setting [4] was 1.01; the normalised cell viability under setting [5] came out at 1.002 ± 0.0068; the normalised cell viability under setting [6] was 0.9987 ± 0.0015.
For the compound `CC(C)COCC(CN(Cc1ccccc1)c1ccccc1)N1CCCC1` (stereo not given) [Bepridil hydrochloride], the normalised cell viability is, setting by setting: under setting [1], 0.997 ± 0.02; under setting [2], 0.997 ± 0.043; under setting [3], 1.007 ± 0.0058; under setting [4], 1.03 ± 0.028; under setting [5], 0.9957 ± 0.0075; under setting [6], 1.003 ± 0.0061.
Consider `NC(=O)c1ncn([C@@H]2O[C@H](CO)[C@@H](O)[C@H]2O)n1` [Ribavirin], for which the normalised cell viability turned out to be 0.9713 ± 0.0084 under setting [1]; 0.9883 ± 0.0058 under setting [2]; 0.997 ± 0.04 under setting [3]; 0.973 ± 0.011 under setting [4]; 0.9797 ± 0.0067 under setting [5]; 0.9717 ± 0.0096 under setting [6].
With `O=C(NCc1ccncc1)C12CC3CC(C1)CC(c1ccc(Cl)cc1)(C3)C2`, the normalised cell viability was 0.9823 ± 0.0023 under setting [1]; 0.882 ± 0.017 under setting [2]; 1 ± 0.014 under setting [3]; 0.889 ± 0.013 under setting [4]; 0.992 ± 0.022 under setting [5]; 1.01 under setting [6].
Consider `NS(=O)(=O)c1cc2c(cc1Cl)N=CNS2(=O)=O` [Chlorothiazide], for which the normalised cell viability reads like this: under setting [1], 1.02; under setting [2], 1.01 ± 0.014; under setting [3], 1.006 ± 0.0063; under setting [4], 1.01 ± 0.03; under setting [5], 0.9877 ± 0.0038; under setting [6], 0.9967 ± 0.0058.
As for `COc1cc2ncnc(Oc3cccc(NC(=O)Nc4cc(C(C)(C)C(F)(F)F)on4)c3)c2cc1OC`, the normalised cell viability under setting [1] came to 0.897 ± 0.022; the normalised cell viability under setting [2] is 1.05 ± 0.01; the normalised cell viability under setting [3] worked out at 0.934 ± 0.0085; the normalised cell viability under setting [4] came to 1.04 ± 0.021; the normalised cell viability under setting [5] amounted to 0.9767 ± 0.0076; the normalised cell viability under setting [6] is 1.02 ± 0.011.
In the case of `CN[C@H](CC(C)C)C(=O)N[C@H]1C(=O)N[C@@H](CC(N)=O)C(=O)N[C@H]2C(=O)N[C@H]3C(=O)N[C@H](C(=O)N[C@H](C(=O)O)c4cc(O)cc(O)c4-c4cc3ccc4O)[C@H](O)c3ccc(c(Cl)c3)Oc3cc2cc(c3O[C@@H]2O[C@H](CO)[C@@H](O)[C@H](O)[C@H]2O[C@H]2C[C@](C)(N)[C@H](O)[C@H](C)O2)Oc2ccc(cc2Cl)[C@H]1O` [Vancomycin hydrochloride from Streptomyces orientalis], the normalised cell viability is 1.02 ± 0.01 under setting [1]; 1.02 ± 0.021 under setting [2]; 1.03 ± 0.035 under setting [3]; 1.02 ± 0.01 under setting [4]; 1.007 ± 0.0058 under setting [5]; 1.02 ± 0.011 under setting [6].
Consider `NCC(=O)Nc1ccc(-n2nc(C(F)(F)F)cc2-c2ccc3c(ccc4ccccc43)c2)cc1`, for which the normalised cell viability by setting is: under setting [1], 1.03 ± 0.01; under setting [2], 1.01 ± 0.027; under setting [3], 1.02 ± 0.01; under setting [4], 1.03 ± 0.021; under setting [5], 1.01; under setting [6], 0.9867 ± 0.009.
As for `CCc1cncnc1N1CCN(Cc2nc3ccc(C(F)(F)F)cc3[nH]2)CC1`, the normalised cell viability under setting [1] came to 1.06 ± 0.015; the normalised cell viability under setting [2] worked out at 1.11 ± 0.01; the normalised cell viability under setting [3] is 1.04 ± 0.015; the normalised cell viability under setting [4] is 1.06 ± 0.04; the normalised cell viability under setting [5] was determined as 1.027 ± 0.0058; the normalised cell viability under setting [6] amounted to 1.002 ± 0.0068.
As to `NS(=O)(=O)c1cc(C(=O)O)c(NCc2ccco2)cc1Cl` [Furosemide], the normalised cell viability is 1.002 ± 0.0076 under setting [1]; 0.9983 ± 0.0029 under setting [2]; 0.999 ± 0.011 under setting [3]; 0.995 ± 0.015 under setting [4]; 0.984 ± 0.002 under setting [5]; 0.9897 ± 0.0047 under setting [6].
For `NC(=S)c1ccc[n+]([C@@H]2O[C@@H](COP(=O)([O-])OP(=O)(O)OC[C@H]3O[C@@H](n4cnc5c(N)ncnc54)C(OP(=O)(O)O)[C@H]3O)C(O)C2O)c1` (stereo not given in full) [Thio-NADP sodium], the normalised cell viability is, setting by setting: under setting [1], 1.013 ± 0.0058; under setting [2], 1.01 ± 0.026; under setting [3], 1.03 ± 0.021; under setting [4], 0.998 ± 0.013; under setting [5], 1.013 ± 0.0058; under setting [6], 1.013 ± 0.0058.
In the case of `CCn1nnc2c(N3CCOCC3)nc(-c3ccc(NC(=O)Nc4ccc(C(=O)N5CCN(C)CC5)cc4)cc3)nc21`, the normalised cell viability runs as follows: under setting [1], 0.201 ± 0.0067; under setting [2], 0.375 ± 0.015; under setting [3], 0.287 ± 0.01; under setting [4], 0.543 ± 0.024; under setting [5], 0.077 ± 0.01; under setting [6], 0.22 ± 0.016.
Regarding `O=C(O)CCC(=O)N1CCC[C@H]1C(=O)O` [N-Succinyl-L-proline], the normalised cell viability is, setting by setting: under setting [1], 1.01; under setting [2], 1.01 ± 0.04; under setting [3], 1.01 ± 0.032; under setting [4], 1.01 ± 0.016; under setting [5], 1.01; under setting [6], 1.001 ± 0.0081.
Turning to `N=C(N)NC(=O)c1nc(Cl)c(N)nc1N` [Amiloride hydrochloride], the normalised cell viability by setting is: under setting [1], 0.9737 ± 0.006; under setting [2], 0.966 ± 0.023; under setting [3], 0.991 ± 0.0052; under setting [4], 0.992 ± 0.025; under setting [5], 0.9947 ± 0.0084; under setting [6], 1.003 ± 0.0064.
As for `CC(C)NCC(O)c1ccc(NS(C)(=O)=O)cc1` (racemic) [(±)-Sotalol hydrochloride], the normalised cell viability amounted to 0.997 ± 0.011 under setting [1]; 0.995 ± 0.013 under setting [2]; 1.01 ± 0.026 under setting [3]; 0.98 ± 0.0046 under setting [4]; 0.9833 ± 0.0015 under setting [5]; 0.9843 ± 0.0046 under setting [6].
For the compound `CN(C)C(=O)COC(=O)Cc1ccc(OC(=O)c2ccc(NC(=N)N)cc2)cc1` [Camostat Mesilate (FOY-305)], the normalised cell viability was 0.973 ± 0.0096 under setting [1]; 0.99 ± 0.034 under setting [2]; 0.9807 ± 0.0021 under setting [3]; 1.02 ± 0.026 under setting [4]; 0.9923 ± 0.0042 under setting [5]; 0.996 ± 0.013 under setting [6].
As for `O=[N+]([O-])c1cccc2c(Br)[nH]nc12` [3-Bromo-7-nitroindazole], the normalised cell viability under setting [1] was determined as 1.017 ± 0.0058; the normalised cell viability under setting [2] worked out at 1.02 ± 0.027; the normalised cell viability under setting [3] was found to be 1.01; the normalised cell viability under setting [4] is 1.01 ± 0.04; the normalised cell viability under setting [5] amounted to 0.987 ± 0.0099; the normalised cell viability under setting [6] was 0.9907 ± 0.0081.
Regarding `CC(C)C[C@@H]1NC(=O)[C@@H](C(C)C)NC(=O)[C@@H]2CCCN2C(=O)[C@@H](CC(=O)O)NC(=O)[C@@H](Cc2c[nH]c3ccccc23)NC1=O`, the normalised cell viability is, setting by setting: under setting [1], 1.01 ± 0.014; under setting [2], 1 ± 0.018; under setting [3], 1.02 ± 0.025; under setting [4], 1.003 ± 0.0061; under setting [5], 0.9943 ± 0.005; under setting [6], 1.013 ± 0.0058.
